Measured values taken from patent US6344564B1, “Fungicidal 2-imidazolin-5-ones and 2-imidazoline-5-thiones” (priority 1992, dated 2002).

Test system: Plasmopara viticola
Assay: In vivo test on Plasmopara viticola (grape downy mildew)
Settings: in Vitis vinifera, 168 h, dose of 1 g/l, vine cuttings (Vitis vinifera, Chardonnay) sprayed 24 hours before infecting, reading 7 days after infecting, read-out: protection
Experimental: An aqueous suspension of the active material to be rested is prepared, by fine milling, having the following composition:
Tween 80 surface-active agent (oleate of polyoxyethylenated derivative of sorbitan) diluted to 10% in water. 0.3 ml
volume made up to 60 ml with water.
This aqueous suspension is then diluted with water to produce the desired concentration of active material.
Vine cuttings (Vitis vinifera), Chardonnay variety, are grown in pots. When these plants are 2 moths old (8-10-leaf stage, height of 10 to 15 cm), they are treated by spraying with the above aqueous suspension.
After drying for 24 hours, each plant is infected, by spraying, with an aqueous suspension of spores of Plasmopara viticola obtained from a 4-5 day culture, and then suspended at a concentration of 100,000 units per cm^3.
The infected plants are then incubated for two days at approximately 18° C. in an atmosphere saturated with moisture and then for 5 days at approximately 20-22° C. under 90-100% relative humidity.
Reading is carried out 7 days after infecting, by comparison with the control plants.

Row | SMILES | pest or weed control at 1000 µg/mL [%]
1 | CSC1=NC(C)(c2ccc(F)cc2)C(=O)N1Nc1ccccc1 (centres unmarked) [Compound 68, 4-Methyl-2-methylthio-4-(4-fluorophenyl)-1-phenylamino-2-imidazolin-5-one] | ≥ 75
2 | CSC1=NC(C)(c2ccccc2)C(=O)N1Nc1ccccc1 (centres unmarked) [Compound 9, 4-methyl-2-methylthio-4-phenyl-1-phenylamino-2-imidazolin-5-one] | ≥ 75
3 | CSC1=NC(C)(c2ccccc2)C(=O)N1N(C)c1ccccc1 (centres unmarked) [Compound 22, 4-methyl-1-(N-methyl-N-phenylamino)-2-methylthio-4-phenyl-2-imidazolin-5-one] | ≥ 75
4 | CSC1=NC(C)(c2ccccc2)C(=S)N1Nc1ccccc1 (centres unmarked) [Compound 1, 4-methyl-2-methylthio-4-phenyl-1-phenylamino-2-imidazoline-5-thione] | ≥ 75
5 | CSC1=NC(C)(c2ccccc2)C(=O)N1Cc1ccccc1 (centres unmarked) [Compound 34, 1-benzyl-4-methyl-2-methylthio-4-phenyl-2-imidazolin-5-one] | ≥ 75
6 | CC1=NC(C)(c2ccccc2)C(=O)N1Nc1ccccc1 (centres unmarked) [Compound 201, 2,4-dimethyl-4-phenyl-1-phenylamino-2-imidazolin-5-one] | ≥ 75
7 | CCC1(c2ccccc2)N=C(SC)N(Nc2ccccc2)C1=O (centres unmarked) [Compound 48, 4-ethyl-2-methylthio-4-phenyl-1-phenylamino-2-imidazolin-5-one] | ≥ 75
8 | CSC1=NC(C)(c2ccccc2)C(=O)N1N(C(C)=O)c1ccccc1 (centres unmarked) [Compound 23, 4-methyl-1-(N-acetyl-N-phenylamino)-2-methylthio-4-phenyl-2-imidazolin-5-one] | ≥ 75
